The source gives no read counts; variants with many changes may rest on few reads.
B1: LINE1-mini (parent)
chain: GGCAGAGCUCAACACAGCGUGGCAAAGUGGCUGUGGCUAGACUGCC

Variants of: B1
Test: self-cleavage, relative activity (ratio to wild type); higher = more cleavage; in vitro, sequencing; the parent is a self-cleaving ribozyme

Variant | self-cleavage
GGCAGAGCUCAAGACAGCGUGGCAAAGUGGCUUUGGCUAGACUUCC [C13G G33U G44U] | 0.08
CGCAAAGCUCAACACAGCGAGUCAAACUGGCUGUGGGUAGACUGCC [G1C G5A U20A G22U G27C C37G] | 0.01
GCCAGAGCUCAACACAGCGUAGCAAACUGGCUGUGGCAAGACUGCC [G2C G21A G27C U38A] | 0.07
GGUAUAGCUCAACACAGCGUGGCAAAGUGGCUGUGGCUAGACUACC [C3U G5U G44A] | 0.06
GGUAGAGCACAACACAACGUGGCACAGUGGCGGUGGCUGGACGGCC [C3U U9A G17A A25C U32G A39G U43G] | 0.05
GGCAGAGCUUAACACAGCGUGUCAAAGUGGCUGUGGCUCGACUGCC [C10U G22U A39C] | 0.12
GGCAGAGCUCAACUCAGCGAGGCAAAUUGGCUGUGGCUAGACUGCC [A14U U20A G27U] | 1.12
GGCAGAUCGCAACACAGCGUGGCAAAGUGGCUGUGGCUAGACUGUC [G7U U9G C45U] | 0.03
UGCAUAGCUCAACACACCGUGGAGAAGUGGCUGUGGCUAGACUGCC [G1U G5U G17C C23A A24G] | 0.03
GGCAGAGCUCAACACAGCUUCGCAAAGAGGCUGUGGCUAGACUGCC [G19U G21C U28A] | 1.59
GUCAGAGCUAAACACAGCGGGACAAAGUGGCAGUGGCUAGACUGCC [G2U C10A U20G G22A U32A] | 0.01
GGGAGCGCUCAACCAAGCCUGAAAAAGUGGCUGUGGGUAAACUGCC [C3G A6C A14C C15A G19C G22A C23A C37G G40A] | 0
GCCACAGCUCUACACAGCGUGGCAAAGUGGCUGUGGCUAGACUGCC [G2C G5C A11U] | 0.02
GGCAGAGCUCAACACAUCCUGUCAAAGUGGCUGUGGCUAGACUGCC [G17U G19C G22U] | 1.22
GGCAGAGCUCAACACAGCGUGGCAAAGUAGGUGUAGCUAGAGUGCC [G29A C31G G35A C42G] | 0.06
GGCAGAGCCCAACGCAUAGUGGCAACGUGGCUGGGGCUAGACUGCA [U9C A14G G17U C18A A26C U34G C46A] | 0
GGCAGAGCCCAACACAGCGUGGGAGAGUGGCUGUGGCUAGACUGCC [U9C C23G A25G] | 0.01
UGCAGAGUUCAAUACAGCGUGGCAAAGUGGCUGUGGCCAGACUGCC [G1U C8U C13U U38C] | 0.02
GGCAGAGCUCAACGCAUCGUGGCAAAGUGGCUGAGGCUAGACUGCC [A14G G17U U34A] | 0.2

Variant | self-cleavage
GUCAUAGCUUAACACAGCAUGGCAAAGUGGCUGUGGCUAGACUGCC [G2U G5U C10U G19A] | 0
GGGAGAGCUCAACACAGCGUGGCAAAGUGGCCGUGGCUAGACUUCC [C3G U32C G44U] | 0.09
GGCAGAGCAAAACACAGCGUGGCAAAGCGGCUGUGGCUAGACUGCC [U9A C10A U28C] | 0.03
CGCAGAGCUCAACACAGCGUGUCAAAAUGGCUGUGGCUAGACUGCC [G1C G22U G27A] | 0.09
GGCAGAGCUCAAUACAGCGUGGCAAAGUGGGUAUGGCUAGACUGCC [C13U C31G G33A] | 0.02
GGCAGAGCUCAAGACAGGGUGGCAAAGUAGCUGUGGUUAGAUUGCC [C13G C18G G29A C37U C42U] | 0.44
GGCAAAGCUCAACACAGCGUGACAAAUUGGCUGUCGCUAGACUGCC [G5A G22A G27U G35C] | 0.17
GGCAGAGCUCAACACAGCGUGGCCAAGUGGCUGUGACUAGACUGUC [A24C G36A C45U] | 0.05
GGCAGAGCUCAACACAGCGAGGCAAUGUGCCUGUGGCUAGACUGCC [U20A A26U G30C] | 0.31
GGUAGCGCUCAACACAGCCUGGCAAAGUGGCUGUGGCUAGACUGCC [C3U A6C G19C] | 0.09
GGCACAGCUCAAGACCGCGUGGCAAAGUGGCUGUGGCUAGACUGCC [G5C C13G A16C] | 0.01
GGGAGAGCUCAACACAGCGUGGCAUAGUGGCUGAAGCUAGACUGCC [C3G A25U U34A G35A] | 0.06
GGCGGAGCUCAACACAGCGUGGCAAAGUGGCUGUGGCUAGCCCGCC [A4G A41C U43C] | 0.01
GGCAGAGCUCAACACAGCGUGGCAAAGUGGGUGUGGCCAGACUGCA [C31G U38C C46A] | 0.03
GGCAGAUCUCAACACAGCGUGGCAAAGUGGGUGUGGCUAGACCGCC [G7U C31G U43C] | 0.11
GGCUAAGCUCAAAACAGCUUGGCUAAGUGGCUGUAGCUAGACUGCC [A4U G5A C13A G19U A24U G35A] | 0.02
GGCAGAGCUGAAGACUGCGUGGCAAAGUGGCUGUGGCUAGACUGCC [C10G C13G A16U] | 0.01
CGCAGCGCUCAACACAGCGUGGCAAAGUGGCUGUGGGUAGACUGCC [G1C A6C C37G] | 0.02
GGCAGAGCUCAAGACAGCGUGGCAAAGUGGCUGUGGGUAGACUGCA [C13G C37G C46A] | 0.01

Variant | self-cleavage
GGCAGGGCUCAACACAGUGUGGCAAAGUGGCUGUUGCUAGAUUGCC [A6G C18U G35U C42U] | 0.1
GGCAGAGCUCAACACAGCGUGGCAAAGUGGCCGUGACUAGACAGCC [U32C G36A U43A] | 0.11
GGCAGAGCUCAACGCAGCGUGGCAAAGUGGCUGUGUCUAGGCUGCC [A14G G36U A41G] | 0.07
GGCAGAGCUCAGCACAUCGUGGGAAAGUGGCUGUGGCUAGCCUGCC [A12G G17U C23G A41C] | 0.02
GGCAGAGCUCAACUCCGCGUGACAAAGUGGCUGUGGCUAGACUGCC [A14U A16C G22A] | 0.05
GGCAGAGCUCAACACAGCGUUGCAACGUGGCUGUGGCUAGCCUGCC [G21U A26C A41C] | 0.02
GGCAGACCUCAACACAGCGUGGCAAAGUGGAAGUGGCUAGACUGCC [G7C C31A U32A] | 0.1
GGCAGAACUCAAGACAGCGUGGCAAAGUGGCUGUGGCUAGACUGGG [G7A C13G C45G C46G] | 0.04
GGCAGAGCUCAAUACGGCGUGGCAAAGUGGCUGUGACUAGACUGCC [C13U A16G G36A] | 0.2
GGCAUAGCUCAACACAGCAUGGCAAAGUGGCUGUGGCUUGACUGCC [G5U G19A A39U] | 0.06
GGCGGAGUUCAACACAGCGUGGCAAAGUGGCUGUGGCUACACUGCC [A4G C8U G40C] | 0.07
CGCAGGGCUCAACACGGCGUGGCAAAGUUGCUGUGGCUAGACUGCC [G1C A6G A16G G29U] | 0.03
GGGAGAGCUCAACAAAGCGGGGCAAAGUGGCUGUGGCUAGACUGCC [C3G C15A U20G] | 0.03
GGUAGAGCUGAACACAGCGUGGCAAAGUGAUUGUGGCUACACUGUC [C3U C10G G30A C31U G40C C45U] | 0.01
GGCAGUGCUCGAUUCAGCGUGGCAAAGUGGCUGUGUCUAGAAUGCC [A6U A11G C13U A14U G36U C42A] | 0.06
GGCAGAGAUCAACACCGCGUGGCAAAGUGGCUGUGGCUAGGCUGCC [C8A A16C A41G] | 0.05
GGCAGAGCUCAACCCAGCGUGGCAAAUUGUCUGUGGCUAGACUGCC [A14C G27U G30U] | 0.12
GUCAGAGCUCAACACAGCUUGGCAAAGUGGCUGUGGUUAGACUGCC [G2U G19U C37U] | 0.03
